According to PubChem BioAssay AID463173 (ICCB-Longwood Screening Facility, Harvard Medical School, 2010):
Hit rate of the full screen: of about 52,000 compounds, about 4,300 (8.3%) were called active. No stated cut-off is given here; in the data, active means survival mostly below about 52% (no sharp cut-off); inactive means mostly above about 56%. Some of the results follow.

Tested on: DeltatarO mutant
Test: S. aureus survival, RN4220 and DeltatarO strains – OD600, teichoic acid synthesis inhibitors, primary screen (AID 463173)
Settings: S. aureus RN4220 wild type/DeltatarO growth, OD600, 18 h, hits give low values, screened at 18.75 µg/mL (by protocol)

| SMILES | survival |
| --- | --- |
| CCc1ccccc1NC(=O)Nc1cc(C(=O)NCc2ccc(C)cc2)ccc1N1CCCC1 | inactive: 113% |
| CCOC(=O)c1ccccc1NC(=O)Nc1cc2c(cc1N1CCCCC1)n(C)c(=O)n2C | inactive: 76% |
| Cc1nn(-c2ccc(F)cc2)c(-n2cccc2)c1C(=O)NCCCN1CCN(c2ccccc2F)CC1 | inactive: 78% |
| CCOc1ccc(CNC(=O)CCS(=O)(=O)c2cc3c(cc2Cl)NC(=O)CO3)cc1OC | inactive: 74% |
| O=C(Nc1ccc(N2CCC(c3ccccc3)C2)c(C(=O)O)c1)c1ccc(Cl)cc1 (centres undefined) | inactive: 60% |
| COc1cccc(NC(=O)CCc2c(C)nc3c4cccnc4nn3c2C)c1 | inactive: 90% |
| CCOc1ccc(Oc2nc(NCC(C)C)nc(NC(C)(C)C)n2)nn1 | inactive: 72% |
| CCC(=O)Nc1ccc(Cl)c(NC(=O)c2cc3ccccc3o2)c1 | inactive: 67% |
| COc1ccccc1OCC(=O)N(Cc1ccc(Cl)cc1)CC1CCCO1 (centres undefined) | inactive: 74% |
| CCc1cccc(CC)c1NC(=O)c1ccc2c(c1)CCN2S(=O)(=O)c1ccccc1 | inactive: 60% |
| Cc1cccc(NC(=O)CN2C(=O)c3cccnc3Oc3ccc(Cl)cc32)c1C | inactive: 73% |
| CC1=Nc2cc(C(=O)NC3CCCC3)ccc2Sc2ccc(C)cc21 | inactive: 59% |
| Cc1nn(-c2nc(-c3ccc(F)cc3)cc(C(F)(F)F)n2)c(C)c1Br | active: -2% |
| COc1ccc(NC(=O)Cn2c(C)cc3ccccc3c2=O)c(OC)c1 | inactive: 59% |
| COc1cccc(C(=O)Nc2ccccc2C(=O)OCc2cc(=O)n3c(C)csc3n2)c1 | inactive: 100% |
| CC1=C(c2ccc(C)c(C)c2)S(=O)(=O)N=C1N1CCC(C(=O)NCCc2ccco2)CC1 | inactive: 72% |
| Cc1ccc(-c2cc(C(=O)N3CCN(S(=O)(=O)c4ccc(Br)cc4)CC3)[nH]n2)cc1C | inactive: 80% |
| CS(=O)(=O)N1CCc2cc(C(=O)NCCc3ccccc3)ccc21 | inactive: 94% |
| CC(C)CCNC(=O)Nc1ccc2c(c1)N(C)C(=O)c1ccccc1S2 | inactive: 89% |
| Cc1ccc(Cc2cnc(I)c(O)c2)cc1 | inactive: 80% |
| COC(=O)CS(=O)(=O)c1nc2ccccc2nc1N1CCCCC1 | inactive: 52% |
| COCCCNC(=O)CN1C(=O)COc2ccc(S(=O)(=O)N3CCCC3)cc21 | inactive: 79% |

| SMILES | survival |
| --- | --- |
| COc1cccc(NC(=O)Cn2cnc3c(nc4n3CCCCC4)c2=O)c1 | inactive: 76% |
| COc1ccc(C(=O)NCCn2cc(SCC(=O)NCCc3ccc(OC)c(OC)c3)c3ccccc32)cc1 | inactive: 74% |
| Cc1ccc(NC(=O)Cn2c(=O)c3cc(Cl)ccc3n3nncc23)cc1 | inactive: 75% |
| Cc1n[nH]c(C)c1S(=O)(=O)N(CC(=O)NC(C)c1ccccc1)c1ccc(C(C)C)cc1 (centres undefined) | active: 54% |
| COC(=O)C1=NNC2C(=O)N(C3CCCCC3)C(=O)C12 (centres undefined) | inactive: 79% |
| Cc1ccccc1CNC(=O)C(=O)NCC(c1ccco1)S(=O)(=O)c1ccccc1 (centres undefined) | inactive: 92% |
| COc1ccc(C(=O)Nc2nnc(S(=O)(=O)N(C)c3ccc(Cl)cc3)s2)cc1OC | inactive: 83% |
| Cc1ccc(CCNC(=O)c2cn(C)c3ccc(S(=O)(=O)N4CCCCC4)cc3c2=O)cc1 | inactive: 71% |
| Cc1ccc2[nH]c(CSc3nnc(NC(=O)c4ccccc4C)s3)cc(=O)c2c1 | inactive: 83% |
| O=C1CCCN1c1ccc(S(=O)(=O)NCCOc2ccccc2Cl)cc1 | inactive: 97% |
| CCC(=O)NCC(c1ccc2c(c1)OCO2)N1CCN(c2ccccc2)CC1 (centres undefined) | inactive: 124% |
| COc1ccc(-c2[nH]nc3nc(-c4cc(OC)c(OC)c(OC)c4)cc(C(=O)O)c23)cc1 | inactive: 90% |
| Cc1nc2ccccc2c(=O)n1-c1ccc(NC(=O)c2ccc([N+](=O)[O-])cc2)cc1 | inactive: 71% |
| COc1ccc(N2CCN(C(=O)CCc3c(C)nc4cc(-c5ccc(Cl)cc5)nn4c3C)CC2)cc1 | inactive: 116% |
| Cc1ccc2cc(CNCc3cccnc3)c(=O)[nH]c2c1 | inactive: 97% |
| CCOc1ccc(NCc2cccn2-c2nnc(N3CCC(C(=O)NCCc4ccc(OC)c(OC)c4)CC3)s2)cc1 | inactive: 87% |
| O=C(CN1CCOCC1)N(c1ccccc1)c1ccc2ccccc2c1 | inactive: 84% |
| CCc1ccc(C2CC(=O)Nc3c2c(C)nn3-c2nc(C)cc(C)n2)cc1 (centres undefined) | inactive: 57% |
| CCOc1ccc(-c2nnc(SCC(=O)NCc3ccccc3)nc2-c2ccc(OCC)c(OC)c2)cc1OC | inactive: 80% |
| Cc1ccc(C)c(N2CCN(S(=O)(=O)c3c(C)nc4sccn4c3=O)CC2)c1 | inactive: 92% |
| CCOc1ccccc1NC(=O)N1CCN(Cc2nc3ccc(C)cc3o2)CC1 | inactive: 76% |
| C/C=C/C(=O)Oc1ccc(Cl)cc1 | inactive: 88% |
